# Results from PubChem BioAssay AID686978 (National Center for Advancing Translational Sciences (NCATS), 2013).
# Hit rate of the full screen: of about 420,000 compounds, about 64,000 (15%) were called active. The shares of active, inactive and inconclusive entries below differ from those in the screen. The call rests on the fitted dose curve; in most records, active means well fitted inhibition curve with a large enough effect; inconclusive means small, poorly fitted or top-dose-only effect; inactive means flat fitted curve, though single readings scatter. Potencies of inconclusive entries are left out as doubtful fits.
# Assay: qHTS for Inhibitors of human tyrosyl-DNA phosphodiesterase 1 (TDP1): qHTS in cells in absence of CPT; further: nearly all actives have a fitted effect of over 55% in size
# Conditions: DT40 Tdp1-/- hTDP1 cells, no CPT, ATP luminescence, 48 h; activity change, negative = growth inhibition: at 46.2 µM (top of the series) unless noted
# Summary of the method: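 DT40 Tdp1-/-;hTDP1 cells, no CPT (DMSO vehicle only), 400 cells/well; compounds pin-transferred; ≥48 hr, 37 °C; CellTiter-Glo 30 min RT dark, luminescence read.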
# On the % scale 0 is the no-effect control and ±100 the full control effect; potency means the concentration at half of the fitted maximal effect; tags describe the fitted curve by direction and shape.
Structure (SMILES),Potency,"activity change, negative = growth inhibition"
COc1ccc(OCc2nc(N)nc(Nc3ccccc3OC)n2)cc1,"inconclusive [inhibitor, single point]",
Cc1csc(NC(=O)CCc2c(C)nc3cc(-c4cccc(F)c4)nn3c2C)n1,active: 20.6 µM,
CC(=O)C[C@@H](O)CC(=O)[C@@H]1OC(=O)CCCCCCc2ccccc21,"inconclusive [inhibitor, full curve, poor fit]",
O=C1N/C(=C\c2ccccc2)C(O)=C1C=NCc1ccccc1,"inconclusive [inhibitor, partial curve, poor fit]",
O=C(Cc1ccccc1)NNC1CC(=O)N(c2ccccc2)C1=O (stereo not given),inactive,
CC(C)c1ccc(NC(=O)CSc2nc(=O)n(CCCN3CCOCC3)c3c2CCC3)cc1,inactive,
Cc1noc(-c2ccc(-c3noc(-c4cccc(Cl)c4)n3)cc2)n1,inactive,
Cc1nn(-c2ccc(Br)cc2)c(=O)c2ccccc12,,inconclusive: -30.1% [inhibitor]
Cc1ccc(S(=O)(=O)C(CNC(=O)c2ccc(C(F)(F)F)cc2)c2ccco2)cc1 (stereo not given),"inconclusive [inhibitor, single point]",
COc1ccc(C(C(=O)Nc2ccc(F)cc2)N2CCN(CC(=O)N3CCCC3)CC2)cc1 (stereo not given),inactive,
N=C(N)c1ccc(OCCCOc2ccc(C(=N)N)cc2)cc1,active: 6.68 µM,
C[C@@H]1CN(S(=O)C(C)(C)C)[C@H](CCO)/C1=C\c1ccccc1 (stereo not given in full),"inconclusive [inhibitor, single point]",
CCc1ccc2occ(CC(=O)Nc3sc4c(c3C(=O)NCCOC)CCCC4)c2c1,"inconclusive [inhibitor, single point]",
CC(=O)c1cccc(NC(=O)c2c(C)nn(-c3ccccc3)c2Cl)c1,"inconclusive [inhibitor, single point]",
CCNS(=O)(=O)c1ccc(CCC(=O)N2CCCC2)cc1,inactive,
O=C1NC2(Nc3ccccc31)C(=O)Nc1ccccc12 (stereo not given),"inconclusive [inhibitor, single point]",
CCCCCCCCN1C(=O)[C@H](CC(=O)NCCCOCCCC)C[C@@]2(C(=O)OC)CC(C)(C)CC=C12,active: 14.6 µM,
CN(C)CCCNC(=O)C[C@H]1C[C@H](C(=O)N2CCCCC2)[C@@]2(C)c3[nH]c4ccc(Cl)cc4c3CCN2C1=O,"inconclusive [inhibitor, single point]",
COc1cc(OC)nc(NC(=O)CSc2nnc(-c3ccccc3)n2C2CCCCC2)n1,"inconclusive [inhibitor, partial curve]",
CCn1cc2nc(SCc3cccc(C)c3)n(CCc3ccccc3)c(=O)c2n1,"inconclusive [inhibitor, single point]",
COc1ccccc1CCC(=O)N1CCN(S(=O)(=O)c2cc(C(F)(F)F)ccc2Cl)CC1,"inconclusive [inhibitor, single point]",
Cc1nc2c(-c3ccccc3)c(C)nn2c(C)c1CCC(=O)NCc1ccccc1,"inconclusive [inhibitor, single point]",
COc1ccc2c(CC(=O)Nc3nccs3)coc2c1,inactive,
COc1ccc(C(=O)COC(=O)c2nc3nccc(C)n3n2)cc1F,inactive,

Structure (SMILES),Potency,"activity change, negative = growth inhibition"
O=C1NN(c2ccccc2)C(=O)/C1=C/c1coc2ccccc2c1=O,"inconclusive [inhibitor, single point]",
CCOC(=O)c1cc(NC(=O)Nc2nc3ccccc3s2)c(C)nc1C,"inconclusive [inhibitor, single point]",
Cc1ccc(-n2cc(CNCC3CC(=O)N(C4CC4)C3)c(-c3cccc(C)c3)n2)cc1 (stereo not given),active: 14.6 µM,
Cc1ccc(S(=O)(=O)n2nc(-c3ccco3)nc2NCc2ccc(N(C)C)cc2)cc1,active: 23.1 µM,
CC(=O)Nc1cc2c(cc1Cl)-c1ccccc1C2O (stereo not given),inactive,
O=[N+]([O-])c1ccc(N/N=C/C=C/c2ccco2)cc1,"inconclusive [inhibitor, single point]",
COC(=O)COc1ccc(S(=O)(=O)N2CCCCCC2)cc1C,inactive,
O=C(N/N=C\c1cc2c(cc1Cl)OCO2)c1cccs1,"inconclusive [inhibitor, partial curve]",
CCNC(=O)C1CCCN1S(=O)(=O)c1ccc(C)cc1 (stereo not given),inactive,
CCNc1c2c(nc3ccccc13)CC(C)(C)CC2=O,"inconclusive [inhibitor, partial curve]",
O=S(=O)(Nc1ccc(Nc2ccccc2)cc1)c1ccc(F)cc1,"inconclusive [inhibitor, partial curve, poor fit]",
Clc1ccc(Sc2cc(N3CCOCC3)nc(-c3ccccc3)n2)cc1,active: 29.1 µM,
O=C(Cn1cc(C(F)(F)F)ccc1=O)N/N=C/c1ccc(Cl)cc1Cl,"inconclusive [inhibitor, single point]",
Cc1ccccc1NCc1ccc(O)c2ncccc12,active: 5.17 µM,
Cc1cc(OCC(=O)Nc2cccc(-c3nc4ccccc4o3)c2C)cc(C)c1Cl,"inconclusive [inhibitor, single point]",
O=C(CCC(=O)N1CCN(Cc2ccc(F)cc2)CC1)Nc1nnc(C(F)(F)F)s1,inactive,
O=C(Nc1ccccc1)C(=O)Nc1ccccn1,inactive,
Cc1cc(NS(=O)(=O)c2cn(C)c(C)n2)ccc1Br,inactive,
Cc1ccc(C)c(S(=O)(=O)Nc2ccc3cn[nH]c3c2)c1,"inconclusive [inhibitor, single point]",
COc1cccc(C(=O)COC(=O)c2cc(-c3cccs3)nc3ccccc23)c1,active: 16.4 µM,
Cc1ccc(C)c(N2CCN(C(=O)c3cn(C)c4ccc(S(=O)(=O)N(C)C)cc4c3=O)CC2)c1,"inconclusive [inhibitor, single point]",
Cc1nc2ccc(NS(=O)(=O)c3ccc(F)cc3F)cc2s1,"inconclusive [inhibitor, partial curve]",
COc1cccc(CNC(=O)CCc2c(C)nc3c4c(C)cc(C)nc4nn3c2C)c1,active: 23.1 µM,
O=C(CCCSc1nnc(SCCCC(=O)c2ccc(F)cc2)s1)c1ccc(F)cc1,"inconclusive [inhibitor, partial curve]",

Structure (SMILES),Potency,"activity change, negative = growth inhibition"
O/N=C/c1cn(-c2ccccc2)nc1-c1ccc2c(c1)OCCO2,inactive,
COc1cc(OC)c(C=CC(=O)c2ccccc2O)c(OC)c1,"inconclusive [inhibitor, single point]",
O=C(CSc1nc(-c2ccccc2)c(-c2ccccc2)o1)NC1CCS(=O)(=O)C1 (stereo not given),"inconclusive [inhibitor, single point]",
O=C(COc1ccc(F)cc1Cl)Nc1cc(S(=O)(=O)N2CCOCC2)ccc1N1CCCCC1,"inconclusive [inhibitor, single point]",
CCN(CC)C(=O)CSc1nnc(SCc2ccc(Cl)cc2)s1,"inconclusive [inhibitor, partial curve, poor fit]",
CC(C)N(C)c1ncnc2c1ncn2[C@H]1CN(Cc2cccs2)C[C@@H](CO)O1,"inconclusive [inhibitor, partial curve]",
CSc1ccc(CNC(=O)C2CCC(=O)N(CCc3ccc(Cl)cc3)C2)cc1 (stereo not given),"inconclusive [inhibitor, single point]",
CC1C(=O)Nc2ccccc2N1C(=O)c1cccc(C(F)(F)F)c1 (stereo not given),"inconclusive [inhibitor, single point]",
COc1ccc(OC)c(CN2CCN(Cc3cccc4ccccc34)CC2)c1,"inconclusive [inhibitor, single point]",
Cc1ccc(-n2nc(C)c(C(=O)NCCCN3CCN(c4cccc(Cl)c4)CC3)c2-n2cccc2)cc1,active: 5.8 µM,
Cc1ccc(CCNc2nc3ccccc3c3nc(-c4cccnc4)nn23)cc1,"inconclusive [inhibitor, full curve]",
Cc1ccc(C)c(CN2C(=O)c3ccccc3S(=O)(=O)c3ccc(C(=O)NCCc4ccc(Cl)cc4)cc32)c1,inactive,
COc1ccc(N(C(=O)c2snc(C(N)=O)c2N)C(C(=O)NC2CCCC2)c2ccco2)c(OC)c1 (stereo not given),active: 23.1 µM,
CC(C)(C)C1=CC(=Nc2ccccc2N)C=C(C(C)(C)C)C1=O,"inconclusive [inhibitor, single point]",
O=c1[nH]nc(-c2n[nH]c(=O)o2)o1,"inconclusive [inhibitor, partial curve]",
Cc1onc(-c2ccccc2Cl)c1C(=O)Nc1ccc(S(=O)(=O)Nc2nccs2)cc1,"inconclusive [inhibitor, full curve]",
OC1(c2cccnc2)CCN(Cc2ccc3c(c2)CN(Cc2cccc4nccnc24)CCO3)CC1,inactive,
Cc1ccc(C(=O)Nc2c(C)cc(-c3ccc(Cl)cc3)oc2=O)cc1,inactive,
O=C(NC(=S)Nc1cccc(C(F)(F)F)c1)c1csnn1,"inconclusive [inhibitor, single point]",
COc1ccc(Oc2ncc3nc(C)c(=O)n(Cc4cccs4)c3n2)cc1,"inconclusive [inhibitor, single point]",
N#Cc1ccc(C(=O)Nc2cccc3ncccc23)c(F)c1,"inconclusive [inhibitor, single point]",
Cc1cc(C)c2nc(N3CCCC(C(=O)N4CCN(c5ncccn5)CC4)C3)sc2c1 (stereo not given),"inconclusive [inhibitor, single point]",
